# Assay results: the supplement of paper PMC10369915
# The other results are listed elsewhere or left out. No stated cut-off is given here; in the data, active = 3.2 or more and inactive = the rest. Only a few entries rise above the background.
# B1: AGO2_HUMAN_393 (peptide)
# chain: ASFNTDPYVREFGIM
# B2: FYB_HUMAN_755 (peptide)
# chain: CRNEEGKYGYVLRSY
# B3: FYB_HUMAN_757_YA (peptide)
# chain: NEEGKAGYVLRSALA
# B4: FYN_HUMAN_28_YA (peptide)
# chain: SLNQSSGYRAGTDPT
# B5: FYN_HUMAN_30_YA (peptide)
# chain: NQSSGARYGTDPTPQ
# B6: G3P_HUMAN_42 (peptide)
# chain: DPFIDLNYMVYMFQY
# B7: G6B_HUMAN_211 (peptide)
# chain: DQEPSLLYADLDHLA
# B8: G6PD_HUMAN_428 (peptide)
# chain: DLTYGNRYKNVKLPD
# B9: AGTR1_HUMAN_319 (peptide)
# chain: YFLQLLKYIPPKAKS
# Target: SHP2 C-SH2 domain E139D
# Test: enrichment score (SH2-bound / input frequency) (ratio); bacterial display of known human phosphotyrosine sites (pTyr-Var adds point mutants) read by sequencing; higher = stronger binding; tyrosines were phosphorylated by kinases first
# Conditions: peptide library: Human pTyr
# 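Further: displayed peptides selected on beads carrying the immobilized SH2 domain, with library peptides lacking any tyrosine serving as negative controls.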
row,Binder,enrichment score
1,B1,inactive: 0.548
2,B2,inactive: 1.66
3,B3,inactive: 0.791
4,B4,inactive: 0.758
5,B5,inactive: 0.655
6,B6,inactive: 1.78
7,B7,inactive: 0.8
8,B8,inactive: 0.544
9,B9,active: 3.34

# Target: SHP2 C-SH2 domain wild-type
# Test: as above
# Conditions: peptide library: Human pTyr
row,Binder,enrichment score
1,B1,inactive: 0.535
2,B2,inactive: 1.32
3,B3,inactive: 0.619
4,B4,inactive: 0.547
5,B5,inactive: 0.544
6,B6,inactive: 1.72
7,B7,inactive: 0.634
8,B8,inactive: 0.545
9,B9,active: 3.71

# Target: SHP2 N-SH2 domain L43F
# Test: as above
# Conditions: peptide library: Human pTyr
row,Binder,enrichment score
1,B1,inactive: 0.587
2,B2,inactive: 1.43
3,B3,inactive: 0.567
4,B4,inactive: 0.693
5,B5,inactive: 0.576
6,B6,inactive: 1.62
7,B7,inactive: 3.03
8,B8,inactive: 0.699
9,B9,active: 4.54

# Target: SHP2 N-SH2 domain T42A
# Test: as above
# Conditions: peptide library: Human pTyr
row,Binder,enrichment score
1,B1,inactive: 0.466
2,B2,inactive: 1.42
3,B3,inactive: 0.576
4,B4,inactive: 0.589
5,B5,inactive: 0.574
6,B6,inactive: 1.8
7,B7,inactive: 2.17
8,B8,inactive: 0.603
9,B9,active: 3.36

# Target: SHP2 N-SH2 domain T52S
# Test: as above
# Conditions: peptide library: Human pTyr
row,Binder,enrichment score
1,B1,inactive: 0.438
2,B2,inactive: 1.87
3,B3,inactive: 0.693
4,B4,inactive: 0.615
5,B5,inactive: 0.608
6,B6,inactive: 2.02
7,B7,inactive: 2.2
8,B8,inactive: 0.842
9,B9,active: 4.07

# Target: SHP2 N-SH2 domain wild-type
# Test: as above
# Conditions: peptide library: Human pTyr
row,Binder,enrichment score
1,B1,inactive: 0.651
2,B2,inactive: 1.45
3,B3,inactive: 0.649
4,B4,inactive: 0.795
5,B5,inactive: 0.824
6,B6,inactive: 2.12
7,B7,inactive: 0.902
8,B8,inactive: 0.758
9,B9,active: 5.49
